The target in one assay is delta opiate receptor (Homo sapiens, UniProt P41143). The assay is described as follows: cAMP accumulation, HEK293 cells transfected with DA receptor, delta opiate receptor and AC7. The assay is classed as cell-based. Further details: expressed in transfected cells; host or cells: HEK293 (ATCC), calcium phosphate transient transfection.
The next assay addresses MOR (μ opiate receptor) (Homo sapiens, UniProt P35372). The assay is described as follows: PDSP radioligand binding, [^3H]DAMGO.
The target in assay [1] is T1, Delta Opiate Receptor (DOR) (Homo sapiens, UniProt P41143). The assay is described as follows: biochemical.
The target of assay [2] is T1, Delta Opiate Receptor (DOR). The settings on record: read-out: Binding constant Ki, Delta Opiate Receptor; radioligand displacement.

The structures appear in SMILES notation. Like-named read-outs stand apart in the source and are kept apart here.

T1 sequence (P41143 whole entry): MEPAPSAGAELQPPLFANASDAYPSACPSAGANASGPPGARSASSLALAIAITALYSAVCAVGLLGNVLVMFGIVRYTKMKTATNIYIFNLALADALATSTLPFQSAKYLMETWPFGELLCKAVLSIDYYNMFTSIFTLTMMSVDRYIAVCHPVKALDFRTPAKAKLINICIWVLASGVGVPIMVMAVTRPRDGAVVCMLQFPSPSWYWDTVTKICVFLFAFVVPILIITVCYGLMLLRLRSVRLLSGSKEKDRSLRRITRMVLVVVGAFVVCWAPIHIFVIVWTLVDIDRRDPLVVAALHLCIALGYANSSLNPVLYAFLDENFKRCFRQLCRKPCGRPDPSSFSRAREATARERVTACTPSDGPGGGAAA
delta opiate receptor, sequence (P41143 whole entry): as above
MOR (μ opiate receptor), sequence (P35372 whole entry): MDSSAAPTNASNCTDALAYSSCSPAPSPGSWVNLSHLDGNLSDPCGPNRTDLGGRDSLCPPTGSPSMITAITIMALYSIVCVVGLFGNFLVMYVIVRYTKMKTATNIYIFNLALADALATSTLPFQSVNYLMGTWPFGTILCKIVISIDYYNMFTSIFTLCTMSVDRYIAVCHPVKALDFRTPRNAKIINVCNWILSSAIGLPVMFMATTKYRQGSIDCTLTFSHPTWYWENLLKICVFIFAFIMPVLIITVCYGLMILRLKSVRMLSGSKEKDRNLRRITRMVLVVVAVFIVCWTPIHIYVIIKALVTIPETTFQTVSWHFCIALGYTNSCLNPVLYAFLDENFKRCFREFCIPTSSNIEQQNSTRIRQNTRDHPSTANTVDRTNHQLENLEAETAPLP

Take `CCCCN(CCCC)C(=O)Nc1cc(C(=O)O)nc2cc(Cl)cc(Cl)c12` [BCUKA, 5,7-dichloro-4-(3,3-dibutylureido)quinoline-2-carboxylic acid]: on delta opiate receptor, the “Character of action at the delta opiate receptor” value is reported as “agonist”. For the same compound, on delta opiate receptor (DOR, BCUKA 10 and 20 μM, DPDPE 1 μM, FIG. 2), the “Effect on cAMP accumulation in the presence of dopamine” value is “increased cyclic AMP accumulation”. Also, the Ki on MOR (μ opiate receptor) is over 10 µM; in assay [1], 1.7 ± 0.41 µM.

Compound `O=C(O)c1cc(NC(=O)N(c2ccccc2)c2ccccc2)c2c(Cl)cc(Cl)cc2n1` [DCUKA, 5,7-dichloro-4-(3,3-diphenylureido)quinoline-2-carboxylic acid] gave a Ki in assay [1] of 4.5 ± 0.73 µM.

`CCOC(=O)c1cc(NC(=O)N(c2ccccc2)c2ccccc2)c2c(Cl)cc(Cl)cc2n1` [DCUK-OEt]: the Ki in assay [2] is over 10 µM.

These data come from US10435371B2, “Multifunctional aminoquinoline therapeutic agent” (LOHOCLA RESEARCH CORPORATION, priority 2014, dated 2019).
